# Assay results as given in PubChem BioAssay AID686978 (National Center for Advancing Translational Sciences (NCATS), 2013).
# Out of some 420,000 compounds screened, about 64,000 (15%) were called active. This list was built around the results that the source calls inconclusive (neither active nor inactive); the mix of calls is not that of the screen. Calls follow the shape of the dose curve; as a rule, active = well fitted inhibition curve with a large enough effect; inconclusive = small, poorly fitted or top-dose-only effect; inactive = flat fitted curve, though single readings scatter. Potencies of inconclusive entries are left out as doubtful fits.
# Experiment: qHTS for Inhibitors of human tyrosyl-DNA phosphodiesterase 1 (TDP1): qHTS in cells in absence of CPT; also: nearly all actives have a fitted effect of over 55% in size
# Conditions: DT40 Tdp1-/- hTDP1 cells, no CPT, ATP luminescence, 48 h; activity change, negative = growth inhibition: at 46.2 µM (top of the series) unless noted
# Summary of the method: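 Chicken DT40 Tdp1-/- cells stably complemented with human TDP1 were seeded at 400 cells/well with DMSO in place of 20 nM camptothecin. After compound pinning, cells grew at least 48 hr at 37 °C; viability read by CellTiter-Glo luminescence.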
# % is scaled to controls: 0 for no effect and ±100 for the full control effect; potency is read from the fitted curve at half-maximal effect; tags tell the direction and shape of the fitted curve.
SMILES,Potency,"activity change, negative = growth inhibition"
CC(=O)Nc1ccc(-c2cc(N)n(-c3ccccc3)n2)cc1,inactive,–
CN1C(=O)CC(CC(=O)N2CCCCC2CCO)(c2cccc(F)c2)C1=O (centres undefined),inactive,–
CCCc1cc(C(N)=O)c(NC(=O)c2cc(C)on2)s1,"inconclusive [inhibitor, partial curve, poor fit]",–
CC[C@]1(O)C[C@H]2CN(CCc3c([nH]c4ccccc34)[C@@](C(=O)OC)(c3cc4c(cc3OC)N(C=O)[C@H]3[C@@](O)(C(=O)OC)[C@H](OC(C)=O)[C@]5(CC)C=CCN6CC[C@]43[C@@H]65)C2)C1,active: 0.237 µM,–
CCOc1ccc(CN2CCN(Cc3c[nH]c4ccccc34)CC2)cc1,active: 5.8 µM,–
COc1cc2c(cc1NC(=O)C1CCCO1)oc1ccccc12 (centres undefined),"inconclusive [inhibitor, single point]",–
CCC1CCCCN1C(=O)c1noc(C(C)C)c1[N+](=O)[O-] (centres undefined),"inconclusive [inhibitor, single point]",–
Fc1ccc(-c2noc3ncnc(NC4CCCCC4)c23)cc1,"inconclusive [inhibitor, single point]",–
COCCCNC(=O)c1oc2ccc(S(=O)(=O)N(C)C3CCCCC3)cc2c1C,"inconclusive [inhibitor, single point]",–
Cc1ccccc1C(=O)NC(=S)Nc1ccc(S(=O)(=O)N(C)c2ccccc2)cc1,active: 23.1 µM,–
COC(=O)Cn1cc(/C=N/NC(=O)c2ccc(C#N)cc2F)c2ccccc21,inactive,–
COc1ccc(Br)cc1C(=O)NC(=S)Nc1cc(-c2nc3ccccc3[nH]2)ccc1C,active: 14.6 µM,–
Cc1cc(Nc2cccc(Cl)c2)nc2ccc(NC(=O)Cc3cccc(C(F)(F)F)c3)cc12,active: 7.31 µM,–
CC(C)(C)c1cc(CCC(=O)N2CCC2)cc(C(C)(C)C)c1O,"inconclusive [inhibitor, single point]",–
CC(=O)NS(=O)(=O)c1ccc(NC(=O)C(Sc2ccccc2)c2ccccc2)cc1 (centres undefined),inactive,–
CCOC(=O)C1CCN(C(=O)CN(c2ccc3c(c2)OCCO3)S(=O)(=O)c2ccccc2)CC1,inactive,–
COc1ccccc1C(=O)NCCCCNC(=O)c1ccccc1OC,inactive,–
Cc1ccc(S(=O)(=O)N2C[C@H]3C(=O)C[C@@H](c4cccc(C)c4)N(S(=O)(=O)c4ccc(C)cc4)[C@H]3C[C@H]2c2ccccc2)cc1,inactive,–
Cn1c(=O)n(C/C=C/c2ccccc2)c(=O)c2c1nc1n2CCCN1Cc1ccccc1,"inconclusive [inhibitor, single point]",–
COc1ccc(C2CC(c3ccccc3)=NN2S(=O)(=O)c2ccc(C)cc2)c(OC)c1 (centres undefined),active: 7.31 µM,–
COc1ccc(CCNC(=O)CN(CCc2ccccc2)S(C)(=O)=O)cc1,inactive,–
COC(=O)c1ccc(N(C(=O)CNC(=O)c2ccco2)C(C(=O)NC2CCCC2)c2ccco2)cc1 (centres undefined),active: 23.1 µM,–
CCc1nc2c(OCc3cc(Cl)cc(Cl)c3)cccn2c1N(C)C(=O)c1ccccc1F,"inconclusive [inhibitor, single point]",–
COc1ccc(C(=O)NC(=S)Nc2ccc3c4c(cccc24)CC3)cc1OC,"inconclusive [inhibitor, single point]",–
CC(C)c1nc2sc3c(=O)n(N)cnc3c2c2c1COC(C)(C)C2,"inconclusive [inhibitor, single point]",–

SMILES,Potency,"activity change, negative = growth inhibition"
COC(=O)c1ccc(COn2nnc3ccccc32)cc1,inactive,–
COc1nc(SCC(=O)Nc2ccccc2Cl)nc(N(C)C)n1,inactive,–
CCCn1c(SCC(=O)c2ccc(CC)cc2)n[nH]c1=O,"inconclusive [inhibitor, single point]",–
Cc1ccc(S(=O)(=O)NC(=O)Nc2ccc(C)cc2C)cc1,inactive,–
COc1ccc(OC)c(NC(=O)c2cccc(NC(=O)c3ccccc3)c2)c1,"inconclusive [inhibitor, single point]",–
C=CCNC(=O)C1CCN(c2ccc(S(=O)(=O)N3CCOCC3)cc2[N+](=O)[O-])CC1,"inconclusive [inhibitor, single point]",–
Nc1c(-c2ccccc2)cnc2c(-c3ccccc3)cnn12,"inconclusive [inhibitor, partial curve, poor fit]",–
CCn1c(=O)c(C(=O)NNC(=O)c2ccccc2Cl)c(O)c2ccccc21,"inconclusive [inhibitor, single point]",–
O=C(Cn1[nH]c(=O)c2ccccc2c1=O)Nc1ccc2c(c1)CCC2,inactive,–
CCN(CC)CCNC(=O)c1cccc(NC(=O)C(=O)c2ccccc2NC(C)=O)c1,inactive,–
C=C(C)C(=O)N1CCN(C(=O)C(=C)C)c2ccccc21,inactive,–
O=C(NCCCc1ccccc1)C1CCN(C(=O)N2CCOc3ccc(Cl)cc32)CC1,active: 14.6 µM,–
Cc1cc(NC(=O)COC(=O)c2cc([N+](=O)[O-])ccc2N2CCOCC2)ccc1Br,active: 16.4 µM,–
COc1ccc(-c2cc(O)cc(O)c2)cc1,"inconclusive [inhibitor, partial curve, poor fit]",–
O=S(=O)(NCC(c1cccnc1)N1CCN(c2ccccc2)CC1)c1cccs1 (centres undefined),"inconclusive [inhibitor, single point]",–
c1ccc(C(c2nnnn2C2CCCC2)N2CCCCCC2)nc1 (centres undefined),–,inconclusive: -30.6% [inhibitor]
CC(=O)Nc1sc(/C(C#N)=C/c2ccc(Cl)c(Cl)c2)nc1-c1ccc(C)cc1,inactive,–
COc1ccc(C2C=C(c3ccccc3)Nc3nc(NC(=O)/C=C/c4ccccc4)nn32)cc1 (centres undefined),active: 7.31 µM,–
COc1ccc(/C=C/C(=O)Nc2ccccc2C(=O)O)cc1,inactive,–
CN(C)CCNC(=O)c1coc(=O)c(Br)c1,active: 5.8 µM,–
Cc1ccc(C(C)C)c(OCC(=O)NN=C2CCCC2)c1,"inconclusive [inhibitor, partial curve, poor fit]",–
Cc1cccc(CC(=O)Nc2cccnc2)c1,"inconclusive [inhibitor, single point]",–
CC1CCN(C(=O)Cn2cc3c(n2)CCCC3)CC1,inactive,–
COc1cc2nc(NC(=O)c3ccc(Cl)cc3)sc(=O)c2cc1OC,"inconclusive [inhibitor, single point]",–
O=C(CC1C=CCC1)Nc1ccccc1 (centres undefined),inactive,–

SMILES,Potency,"activity change, negative = growth inhibition"
Cc1ccccc1OCC(=O)N1CCCc2ccccc21,"inconclusive [inhibitor, single point]",–
Cc1c(C(=O)N2CCN(c3cccc(Cl)c3)CC2)cccc1[N+](=O)[O-],active: 16.4 µM,–
O=C1C(Cc2ccccc2)Nc2ncnc(N3CCCCC3)c2N1Cc1ccccc1 (centres undefined),"inconclusive [inhibitor, single point]",–
Nc1nc(-c2ccc(NC(=O)c3ccco3)cc2)cs1,"inconclusive [inhibitor, partial curve]",–
CCCC(c1nnnn1Cc1ccc(F)cc1)N1CCN(C2CCCCC2)CC1 (centres undefined),"inconclusive [inhibitor, partial curve, poor fit]",–
O=C(Cn1nnc(-c2ccccc2F)n1)NCc1ccco1,inactive,–
C[C@@H]1CCCCO[C@H](CN(C)Cc2ccc(C(=O)O)cc2)[C@H](C)CN([C@@H](C)CO)C(=O)c2cc(NC(=O)Nc3ccc(C(F)(F)F)cc3)ccc2O1,inactive,–
CCOC(=O)N/N=C(/c1ccccc1)C1CCCCC1,"inconclusive [inhibitor, single point]",–
COc1ccc(S(=O)(=O)N(CC(=O)NC2CC2)Cc2ccccc2)cc1,inactive,–
COc1ccccc1C(=O)NCC(=O)OCCCOC(=O)CNC(=O)c1ccccc1OC,inactive,–
Cc1ccsc1CNC(=O)C1(C)CCN1C(=O)C(C)C (centres undefined),inactive,–
COc1ccc(CNC(=O)c2cccc3c2C(=O)N(Cc2cccnc2)C3)cc1,"inconclusive [inhibitor, single point]",–
CCCn1c(N)c(N(CCOC)C(=O)c2cccc(S(=O)(=O)N3CCCc4ccccc43)c2)c(=O)[nH]c1=O,"inconclusive [inhibitor, single point]",–
CCN1CCSc2ccc(C(=O)NCc3ccc(OC)cc3)cc21,"inconclusive [inhibitor, single point]",–
O=S(=O)(c1ccc(Br)cc1Cl)N1CCN(CCO)CC1,inactive,–
CCOC(=O)C1(CCc2ccccc2)CCN(Cc2ccccn2)CC1,"inconclusive [inhibitor, single point]",–
CCCCCc1ccc(-c2cn(Cc3ccc(C)cc3)nn2)cc1,"inconclusive [inhibitor, single point]",–
Cc1cc(Nc2ccc(F)cc2)c2ccccc2n1,"inconclusive [inhibitor, single point]",–
CN1CCN(c2ccc(-c3cccc4nccn34)cn2)CC1,"inconclusive [inhibitor, single point]",–
O=Cc1cn(-c2ccc(F)cc2)c2ccccc12,–,inconclusive: -36.7% [inhibitor]
CCCc1cc(C(=O)Nc2nccs2)cs1,inactive,–
CC(=O)N1CCc2cc(S(=O)(=O)CCC(=O)NCc3ccc(Cl)cc3)ccc21,active: 20.6 µM,–
CN(CC(=O)Nc1ccc(Cl)c(C(F)(F)F)c1)C(=O)CCCc1nc2ccccc2c(=O)[nH]1,active: 11.6 µM,–
O=C(Nc1cc(C(F)(F)F)ccc1N1CCOCC1)c1ccccc1,"inconclusive [inhibitor, single point]",–
